Test results taken from the antibiotic and cytotoxicity screens of Wong et al. (2023).
The list shows a part of the results.

Key:
[1] = test system: HSkMC (human skeletal muscle cells); test: cytotoxicity call (relative viability < 0.9); conditions: 10 µM
[2] = test system: HepG2; test: cytotoxicity call (relative viability < 0.9); conditions: 10 µM
[3] = test system: S. aureus RN4220; test: growth inhibition call (relative growth <= 0.2); conditions: 50 µM

SMILES: Cc1noc(C)c1S(=O)(=O)Nc1cccc2c1O[C@H](CN(C)S(=O)(=O)c1ccccc1)[C@H](C)CN([C@@H](C)CO)C2=O
- cytotoxicity call [1]: inactive
- cytotoxicity call [2]: inactive
- growth inhibition call [3]: inactive

SMILES: CCCCCC(=O)OC1(C(C)=O)CCC2C3CCC4=CC(=O)CCC4(C)C3CCC21C (configuration not stated)
- cytotoxicity call [1]: inactive
- cytotoxicity call [2]: inactive
- growth inhibition call [3]: inactive

SMILES: COCC(=O)Nc1ccc2c(c1)C(=O)N(C)[C@@H]1CC[C@@H](CC(=O)N3CCc4ccccc4C3)O[C@@H]1CO2
- cytotoxicity call [1]: inactive
- cytotoxicity call [2]: inactive
- growth inhibition call [3]: inactive

SMILES: CC(C)(C)OC(=O)CC[C@]12N=C(c3ccc(OCCCO)cc3)O[C@H]1c1ccccc1CN(Cc1ccccc1)C2=O
- cytotoxicity call [1]: inactive
- cytotoxicity call [2]: inactive
- growth inhibition call [3]: inactive

SMILES: C[C@H]1CCCCO[C@H](CN(C)C(=O)Nc2ccc(C(F)(F)F)cc2)[C@@H](C)CN([C@@H](C)CO)C(=O)c2cc(NC(=O)Nc3cccc4ccccc34)ccc2O1
- cytotoxicity call [1]: inactive
- cytotoxicity call [2]: inactive
- growth inhibition call [3]: inactive

SMILES: COc1cccc(NC(=O)N2C[C@H](O)COC[C@@H]3O[C@H](CC(=O)NCCCN4CCOCC4)CC[C@H]32)c1
- cytotoxicity call [1]: inactive
- cytotoxicity call [2]: inactive
- growth inhibition call [3]: inactive

SMILES: O=C(C[C@H]1CC[C@H]2[C@@H](COC[C@@H](O)CN2C(=O)Nc2ccc(Cl)cc2)O1)NC1Cc2ccccc2C1
- cytotoxicity call [1]: inactive
- cytotoxicity call [2]: active
- growth inhibition call [3]: inactive

SMILES: C[C@@H]1CN([C@H](C)CO)C(=O)c2cc(NC(=O)Nc3cccc4ccccc34)ccc2O[C@@H](C)CCCCO[C@H]1CN(C)S(C)(=O)=O
- cytotoxicity call [1]: inactive
- cytotoxicity call [2]: inactive
- growth inhibition call [3]: inactive

SMILES: C[C@@H]1CCCCO[C@H](CN(C)CC2CCCCC2)[C@@H](C)CN([C@H](C)CO)C(=O)c2cc(NC(=O)C3CCCCC3)ccc2O1
- cytotoxicity call [1]: inactive
- cytotoxicity call [2]: inactive
- growth inhibition call [3]: inactive

SMILES: CC(C)(N)c1cn(C2CCN(C(=O)C3CCC(C(C)(C)C)CC3)CC2)nn1 (configuration not stated)
- cytotoxicity call [1]: inactive
- cytotoxicity call [2]: inactive
- growth inhibition call [3]: inactive

SMILES: Cc1noc(C)c1S(=O)(=O)Nc1ccc2c(c1)C(=O)N([C@H](C)CO)C[C@@H](C)[C@@H](CN(C)Cc1ccccc1)O2
- cytotoxicity call [1]: inactive
- cytotoxicity call [2]: inactive
- growth inhibition call [3]: inactive

SMILES: C[C@H](CO)N1C[C@H](C)[C@H](CN(C)C(=O)NC2CCCCC2)OCCCC[C@H](C)Oc2ccc(NS(=O)(=O)c3cccs3)cc2C1=O
- cytotoxicity call [1]: inactive
- cytotoxicity call [2]: inactive
- growth inhibition call [3]: inactive

SMILES: C[C@@H]1CCCCO[C@H](CN(C)C(=O)Nc2cccc3ccccc23)[C@@H](C)CN([C@H](C)CO)C(=O)c2cc(NC(=O)Nc3ccc(C(F)(F)F)cc3)ccc2O1
- cytotoxicity call [1]: inactive
- cytotoxicity call [2]: inactive
- growth inhibition call [3]: inactive

SMILES: C[C@@H]1CN([C@H](C)CO)S(=O)(=O)c2ccc(-c3cncnc3)cc2O[C@H]1CN(C)C(=O)CN(C)C
- cytotoxicity call [1]: inactive
- cytotoxicity call [2]: inactive
- growth inhibition call [3]: inactive

SMILES: Cc1ccc(S(=O)(=O)N(C)C[C@H]2OCCCC[C@@H](C)Oc3ccc(NC(=O)CCC(F)(F)F)cc3C(=O)N([C@H](C)CO)C[C@@H]2C)cc1
- cytotoxicity call [1]: inactive
- cytotoxicity call [2]: inactive
- growth inhibition call [3]: inactive

SMILES: CCCN(C)C[C@@H]1OCCCC[C@H](C)Oc2ccc(NC(=O)Nc3ccc(C(F)(F)F)cc3)cc2C(=O)N([C@H](C)CO)C[C@@H]1C
- cytotoxicity call [1]: inactive
- cytotoxicity call [2]: active
- growth inhibition call [3]: inactive

SMILES: O=C(C[C@@H]1C=C[C@@H](NC(=O)c2cccnc2)[C@@H](CO)O1)NCc1ccncn1
- cytotoxicity call [1]: inactive
- cytotoxicity call [2]: inactive
- growth inhibition call [3]: inactive

SMILES: C[C@@H]1CN([C@@H](C)CO)C(=O)c2cc(NC(=O)c3ccncc3)ccc2O[C@@H]1CN(C)Cc1ccncc1
- cytotoxicity call [1]: inactive
- cytotoxicity call [2]: inactive
- growth inhibition call [3]: inactive

SMILES: C[C@@H]1CN([C@H](C)CO)C(=O)Cc2cc(NS(C)(=O)=O)ccc2O[C@@H]1CN(C)C(=O)Nc1ccc(C(F)(F)F)cc1
- cytotoxicity call [1]: inactive
- cytotoxicity call [2]: inactive
- growth inhibition call [3]: inactive

SMILES: CC(C)NC(=O)Nc1ccc2c(c1)C(=O)N([C@H](C)CO)C[C@H](C)[C@@H](CN(C)C(=O)Nc1ccc(C(F)(F)F)cc1)OCCCC[C@@H](C)O2
- cytotoxicity call [1]: inactive
- cytotoxicity call [2]: inactive
- growth inhibition call [3]: inactive

SMILES: CN1C(=O)[C@@H]2[C@H](N=CN2CCCO)N(C)C1=O
- cytotoxicity call [1]: inactive
- cytotoxicity call [2]: inactive
- growth inhibition call [3]: inactive

SMILES: CC(C)NC(=O)N[C@@H]1C=C[C@@H](CC(=O)NCCCN(C)C)O[C@H]1CO
- cytotoxicity call [1]: inactive
- cytotoxicity call [2]: inactive
- growth inhibition call [3]: inactive

SMILES: CCS(=O)(=O)NCC[C@H]1CC[C@H](NC(=O)Cc2ccccn2)[C@@H](CO)O1
- cytotoxicity call [1]: inactive
- cytotoxicity call [2]: inactive
- growth inhibition call [3]: inactive

SMILES: C[C@@H]1CCCCO[C@H](CN(C)Cc2ccncc2)[C@H](C)CN([C@H](C)CO)C(=O)c2cc(NC(=O)c3ccccc3)ccc2O1
- cytotoxicity call [1]: inactive
- cytotoxicity call [2]: inactive
- growth inhibition call [3]: inactive

SMILES: C[C@@H]1CN([C@H](C)CO)C(=O)c2cc(NC(=O)NC3CCCCC3)ccc2O[C@@H]1CN(C)Cc1ccc(-c2ccccc2)cc1
- cytotoxicity call [1]: inactive
- cytotoxicity call [2]: active
- growth inhibition call [3]: inactive

SMILES: Cc1noc(C)c1S(=O)(=O)Nc1ccc2c(c1)C(=O)N([C@H](C)CO)C[C@H](C)[C@H](CN(C)C)OCCCC[C@H](C)O2
- cytotoxicity call [1]: inactive
- cytotoxicity call [2]: inactive
- growth inhibition call [3]: inactive

SMILES: OCc1cccnc1
- cytotoxicity call [1]: inactive
- cytotoxicity call [2]: inactive
- growth inhibition call [3]: inactive

SMILES: C[C@@H]1CN([C@@H](C)CO)C(=O)c2cc(NC(=O)Nc3ccccc3)ccc2O[C@@H](C)CCCCO[C@H]1CN(C)C(=O)Nc1ccccc1
- cytotoxicity call [1]: inactive
- cytotoxicity call [2]: inactive
- growth inhibition call [3]: inactive

SMILES: C[C@@H]1C=CNN1C(=O)c1cccnc1
- cytotoxicity call [1]: inactive
- cytotoxicity call [2]: inactive
- growth inhibition call [3]: inactive

SMILES: COc1ccc(S(=O)(=O)N(C)C[C@@H]2OCc3cnnn3CCCC(=O)N([C@@H](C)CO)C[C@@H]2C)cc1
- cytotoxicity call [1]: inactive
- cytotoxicity call [2]: inactive
- growth inhibition call [3]: inactive

SMILES: C[C@H](CO)N1C[C@H](C)[C@@H](CN(C)S(=O)(=O)c2ccccc2)Oc2ccc(NS(=O)(=O)c3ccccc3)cc2C1=O
- cytotoxicity call [1]: inactive
- cytotoxicity call [2]: inactive
- growth inhibition call [3]: inactive

SMILES: COCC(=O)NCc1cc(=O)n2c(n1)CN(c1ncccn1)CCC2
- cytotoxicity call [1]: inactive
- cytotoxicity call [2]: inactive
- growth inhibition call [3]: inactive

SMILES: C[C@@H]1CCCCO[C@@H](CN(C)CC2CCCCC2)[C@@H](C)CN([C@H](C)CO)C(=O)c2cc(NS(=O)(=O)c3ccc(F)cc3)ccc2O1
- cytotoxicity call [1]: inactive
- cytotoxicity call [2]: active
- growth inhibition call [3]: inactive

SMILES: COc1ccc(S(=O)(=O)N(C)C[C@@H]2Oc3c(NS(=O)(=O)c4c(C)noc4C)cccc3C(=O)N([C@H](C)CO)C[C@@H]2C)cc1
- cytotoxicity call [1]: inactive
- cytotoxicity call [2]: inactive
- growth inhibition call [3]: inactive

SMILES: Cc1ccc(CN(CCO)CCO)cc1
- cytotoxicity call [1]: inactive
- cytotoxicity call [2]: inactive
- growth inhibition call [3]: inactive

SMILES: Cc1noc(C)c1S(=O)(=O)Nc1cccc2c1O[C@H](CN(C)C(=O)Nc1ccccc1)[C@H](C)CN([C@@H](C)CO)C2=O
- cytotoxicity call [1]: inactive
- cytotoxicity call [2]: inactive
- growth inhibition call [3]: inactive

SMILES: Cc1noc(C)c1S(=O)(=O)Nc1ccc2c(c1)C(=O)N([C@@H](C)CO)C[C@@H](C)[C@H](CN(C)S(=O)(=O)c1ccccc1)O2
- cytotoxicity call [1]: inactive
- cytotoxicity call [2]: inactive
- growth inhibition call [3]: inactive

SMILES: C[C@@H]1CN([C@H](C)CO)C(=O)Cc2cc(NS(=O)(=O)c3cn(C)cn3)ccc2O[C@H]1CN(C)Cc1ccccc1
- cytotoxicity call [1]: inactive
- cytotoxicity call [2]: inactive
- growth inhibition call [3]: inactive

SMILES: C[C@H](CO)N1C[C@H](C)[C@@H](CN(C)C(=O)Nc2ccc(C(F)(F)F)cc2)Oc2ncc(-c3ccc(C#N)cc3)cc2C1=O
- cytotoxicity call [1]: inactive
- cytotoxicity call [2]: inactive
- growth inhibition call [3]: inactive
